Where “and” joins values, the source holds several entries; their conditions need not be identical. Equal entries are not always repeated. The shares of active, inactive and inconclusive entries below differ from those in the screen. Potencies of inconclusive entries are doubtful fits and often do not repeat. Calls of active or inactive are those of the source. Unless noted, calls follow the shape of the dose curve; as a rule, active = well fitted curve in the direction sought with a large enough effect in the repeat runs; inconclusive = weak or mixed curves; inactive = no such curve, though single readings can be large; an effect the other way counts as inactive or inconclusive.
Key:
[1] = qHTS assay to identify small molecule that activate the aryl hydrocarbon receptor (AhR) signaling pathway - cell viability counter screen (AID 743086); also: nearly all actives have a fitted effect of over 45% in size
Summary of the method: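 Cytotoxicity counter screen: CellTiter-Fluor signal (30 min, 37 C) in 4000 HepG2 cells/well carrying the DRE-luciferase reporter, following 24 h compound exposure at 37 C.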

[2] = target: Peroxisome proliferator-activated receptor gamma (Homo sapiens) (UniProt P37231); assay: qHTS assay to identify small molecule agonists of the peroxisome proliferator-activated receptor gamma (PPARg) signaling pathway (AID 743094; active = well fitted activation curve with a large enough effect in the signal ratio in the repeat runs, not every such curve was filed as active; inconclusive = weak or mixed curves, or effect the other way; inactive = no such curve, though single readings can be large or run the other way; the % refers to the signal ratio); conditions: HEK293H PPARg-UAS-bla, beta-lactamase FRET ratio, 17 h; activation: at 57 µM (top of the series) unless noted
UniProt P37231, sequence (P37231 whole entry, looked up): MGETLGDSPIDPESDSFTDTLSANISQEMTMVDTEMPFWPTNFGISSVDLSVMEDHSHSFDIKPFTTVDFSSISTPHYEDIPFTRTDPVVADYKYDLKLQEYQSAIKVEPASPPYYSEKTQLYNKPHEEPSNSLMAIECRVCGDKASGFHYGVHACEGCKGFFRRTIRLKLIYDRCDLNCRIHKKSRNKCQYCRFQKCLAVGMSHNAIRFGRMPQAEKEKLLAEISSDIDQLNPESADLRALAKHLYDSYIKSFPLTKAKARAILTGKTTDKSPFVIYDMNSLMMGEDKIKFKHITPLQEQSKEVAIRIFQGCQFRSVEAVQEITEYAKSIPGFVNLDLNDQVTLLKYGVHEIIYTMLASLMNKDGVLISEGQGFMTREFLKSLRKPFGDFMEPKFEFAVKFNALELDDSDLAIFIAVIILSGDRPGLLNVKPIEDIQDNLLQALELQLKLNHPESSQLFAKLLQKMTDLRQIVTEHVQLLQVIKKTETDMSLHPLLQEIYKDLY
Summary of the method: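 Compounds dissolved in DMSO were added to PPARg UAS-bla HEK293H cells for 17 h at 37C, and reporter expression was quantified by fluorescence intensity after 1 h with LiveBLAzer B/G FRET substrate.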

[3] = target: Peroxisome proliferator-activated receptor gamma (Homo sapiens) (UniProt P37231); assay: qHTS assay to identify small molecule antagonists of the peroxisome proliferator-activated receptor gamma (PPARg) signaling pathway (AID 743191; calls by dose curve; as to all read-outs here: nearly all actives have a fitted effect of over 30% in size; as to ratio activity, negative = inhibition: % is scaled to controls: 0 for no effect and ±100 for the full control effect); conditions: HEK293H PPARg-UAS-bla, beta-lactamase ratio, antagonist, 17 h; for Potency: ratio activity, negative = inhibition: at 62.6 µM (top of the series) unless noted
Summary of the method: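 Beta-lactamase reporter under UAS control in HEK293H PPARg-bla cells; compound treatment 17 h at 37C. Read-out: fluorescence intensity after 1 h room-temperature incubation with LiveBLAzer B/G FRET substrate.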

[4] = qHTS assay for small molecule agonists of the antioxidant response element (ARE) signaling pathway (AID 743202; active = well fitted activation curve with a large enough effect in the signal ratio in the repeat runs, not every such curve was filed as active; inconclusive = weak or mixed curves, or effect the other way; inactive = no such curve, though single readings can be large or run the other way; the % refers to the signal ratio); conditions: HepG2 ARE-bla reporter, beta-lactamase FRET, 16 h
Summary of the method: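 Quantitative high-throughput format in HepG2 cells bearing an integrated ARE-beta-lactamase reporter. Compound exposure lasted 16 h at 37 C, and fluorescence was read 2 h after adding LiveBLAzer B/G substrate at room temperature.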

[5] = qHTS assay for small molecule agonists of the antioxidant response element (ARE) signaling pathway - cell viability counter screen (AID 743203; calls by dose curve; also: nearly all actives have a fitted effect of over 55% in size); conditions: ARE-bla HepG2 viability, CellTiter-Glo luminescence, 16 h; viability change, negative = cytotoxic: at 73.3 µM (top of the series)
Summary of the method: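 Following 16 hrs of compound treatment at 37C, HepG2 cells with an ARE-controlled beta-lactamase gene were lysed with CellTiter-Glo. Luminescence was read after 30 min at room temperature.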

[6] = qHTS assay to identify small molecule agonists of the peroxisome proliferator-activated receptor delta (PPARd) signaling pathway - cell viability counter screen (AID 743211); conditions: PPARd-bla HEK293H viability, CellTiter-Glo luminescence, 17 h; activity change, negative = cytotoxicity: at 62.6 µM (top of the series); also: nearly all actives have a fitted effect of over 55% in size; as to activity change, negative = cytotoxicity: % is scaled to controls: 0 for no effect and ±100 for the full control effect
Summary of the method: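 Read-out: CellTiter-Glo luminescence, 30 min RT, measured in the same wells as the beta-lactamase reporter. Cells: GeneBLAzer PPAR delta UAS-bla HEK293H, 3000 cells/well, compound exposure 17 h at 37C.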

[7] = target: Peroxisome proliferator-activated receptor delta (Homo sapiens) (UniProt Q03181); assay: qHTS assay to identify small molecule agonists of the peroxisome proliferator-activated receptor delta (PPARd) signaling pathway (AID 743212; calls by dose curve; as to activation: % is scaled to controls: 0 for no effect and ±100 for the full control effect); conditions: HEK293H PPARd-UAS-bla, beta-lactamase FRET ratio, 17 h; activation: at 62.6 µM (top of the series) unless noted
UniProt Q03181, sequence (Q03181 whole entry, looked up): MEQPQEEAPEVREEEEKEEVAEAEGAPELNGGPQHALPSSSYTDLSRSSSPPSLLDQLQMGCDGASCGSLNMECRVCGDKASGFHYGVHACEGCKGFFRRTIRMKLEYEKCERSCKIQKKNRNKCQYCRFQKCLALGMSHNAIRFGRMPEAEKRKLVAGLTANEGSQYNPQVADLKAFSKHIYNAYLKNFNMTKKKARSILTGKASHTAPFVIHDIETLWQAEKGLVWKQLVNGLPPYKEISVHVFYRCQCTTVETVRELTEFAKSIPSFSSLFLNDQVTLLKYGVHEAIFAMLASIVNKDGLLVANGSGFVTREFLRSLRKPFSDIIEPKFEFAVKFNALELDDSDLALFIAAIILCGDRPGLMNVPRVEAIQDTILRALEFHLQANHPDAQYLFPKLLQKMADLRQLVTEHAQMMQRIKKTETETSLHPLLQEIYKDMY
Summary of the method: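 HEK293H PPARd-bla cells; 5 h preincubation 37 C/5% CO2; compound (DMSO) 37 C; LiveBLAzer B/G FRET substrate 2 h RT; fluorescence intensity.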

[8] = qHTS assay to identify small molecule antagonists of the peroxisome proliferator-activated receptor delta (PPARd) signaling pathway - cell viability counter screen (AID 743213); conditions: PPARd-bla HEK293H viability, CellTiter-Glo luminescence, 17 h; viability change, negative = cytotoxic: at 62 µM (top of the series) unless noted; also: nearly all actives have a fitted effect of over 50% in size
Summary of the method: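 Agonist-stimulated (L165041, 300 nM final) HEK293H PPARd UAS-bla cells are exposed to compounds for 17 h at 37 C, and ATP-based luminescence (CellTiter-Glo) from the same wells reports cytotoxicity.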

[9] = target: Vitamin D3 receptor (Homo sapiens) (UniProt P11473); assay: qHTS assay to identify small molecule antagonists of the vitamin D receptor (VDR) signaling pathway (AID 743223; active = well fitted inhibition curve with a large enough effect in the signal ratio in the repeat runs, not every such curve was filed as active; inconclusive = weak or mixed curves, or effect the other way; inactive = no such curve, though single readings can be large or run the other way; the % refers to the signal ratio; as to activity change, negative = inhibition: % is scaled to controls: 0 for no effect and ±100 for the full control effect); conditions: VDR-UAS-bla HEK293T, beta-lactamase FRET ratio, 16 h; activity change, negative = inhibition: at 61 µM (top of the series) unless noted
UniProt P11473, sequence (P11473 whole entry, looked up): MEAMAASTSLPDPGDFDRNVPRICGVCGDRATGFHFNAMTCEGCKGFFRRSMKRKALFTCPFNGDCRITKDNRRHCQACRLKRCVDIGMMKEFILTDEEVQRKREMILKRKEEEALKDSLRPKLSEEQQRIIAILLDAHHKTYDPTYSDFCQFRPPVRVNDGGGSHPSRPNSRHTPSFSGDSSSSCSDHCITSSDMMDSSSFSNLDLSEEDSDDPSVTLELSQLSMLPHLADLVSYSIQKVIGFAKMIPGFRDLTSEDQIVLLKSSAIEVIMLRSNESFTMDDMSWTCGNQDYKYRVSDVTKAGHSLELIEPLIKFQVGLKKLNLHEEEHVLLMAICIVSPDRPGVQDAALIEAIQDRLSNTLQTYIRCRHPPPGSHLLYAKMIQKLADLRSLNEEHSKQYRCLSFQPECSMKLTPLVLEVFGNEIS
Summary of the method: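 Beta-lactamase reporter read-out: FRET substrate fluorescence after 2 h at room temperature, following 16 h exposure of VDR-bla cells to test compound plus 3 nM (final) 1alpha,25-dihydroxyvitamin D3 agonist at 37C.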

[10] = qHTS assay to identify small molecule antagonists of the farnesoid-X-receptor (FXR) signaling pathway - cell viability counter screen (AID 743221; active = well fitted cell-killing curve with a large enough effect in the repeat runs, not every such curve was filed as active; inconclusive = weak or mixed curves, or effect the other way; inactive = no such curve, though single readings can be large or run the other way; also: nearly all actives have a fitted effect of over 50% in size); conditions: FXR-bla HEK293T viability, CellTiter-Glo luminescence, 16 h; activity change, negative = cytotoxicity: at 62.6 µM (top of the series)
Summary of the method: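 HEK 293T FXR-bla cells, 5 h pre-incubation; compound + CDCA 50 uM final, 16 h, 37 C; beta-lactamase FRET read first, then CellTiter-Glo luminescence, 30 min RT.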

[11] = qHTS assay to identify small molecule antagonists of the peroxisome proliferator-activated receptor gamma (PPARg) signaling pathway - cell viability counter screen (AID 743194); conditions: PPARg-bla HEK293H viability, CellTiter-Glo luminescence, 17 h, co-treated with 50 nM rosiglitazone; activity change, negative = cytotoxicity: at 62.6 µM (top of the series); also: nearly all actives have a fitted effect of over 55% in size
Summary of the method: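 Viability was measured as CellTiter-Glo luminescence in GeneBLAzer PPARg UAS-bla HEK293H cells. These cells had been exposed 17 h at 37 C to compounds together with rosiglitazone at 50 nM final, with the beta-lactamase readout taken in the same wells.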

[12] = target: Peroxisome proliferator-activated receptor delta (Homo sapiens) (UniProt Q03181); assay: qHTS assay to identify small molecule antagonists of the peroxisome proliferator-activated receptor delta (PPARd) signaling pathway (AID 743215; active = well fitted inhibition curve with a large enough effect in the signal ratio in the repeat runs, not every such curve was filed as active; inconclusive = weak or mixed curves, or effect the other way; inactive = no such curve, though single readings can be large or run the other way; the % refers to the signal ratio); conditions: HEK293H PPARd-UAS-bla, beta-lactamase FRET ratio, antagonist, 17 h; ratio activity, negative = inhibition: at 62 µM (top of the series) unless noted
Summary of the method: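 HEK293H UAS-bla, PPARd; agonist L165041 300 nM final with cpd in DMSO; 37 C 17 h; FRET substrate, RT 2 h; fluorescence intensity.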

[13] = target: Bile acid receptor (Homo sapiens) (UniProt Q96RI1); assay: qHTS assay to identify small molecule antagonists of the farnesoid-X-receptor (FXR) signaling pathway (AID 743217; active = well fitted inhibition curve with a large enough effect in the signal ratio in the repeat runs, not every such curve was filed as active; inconclusive = weak or mixed curves, or effect the other way; inactive = no such curve, though single readings can be large or run the other way; the % refers to the signal ratio); conditions: HEK293T FXR-UAS-bla, beta-lactamase ratio, CDCA-stimulated, 16 h; activity change, negative = inhibition: at 62.6 µM (top of the series) unless noted
UniProt Q96RI1, sequence (Q96RI1 whole entry, looked up): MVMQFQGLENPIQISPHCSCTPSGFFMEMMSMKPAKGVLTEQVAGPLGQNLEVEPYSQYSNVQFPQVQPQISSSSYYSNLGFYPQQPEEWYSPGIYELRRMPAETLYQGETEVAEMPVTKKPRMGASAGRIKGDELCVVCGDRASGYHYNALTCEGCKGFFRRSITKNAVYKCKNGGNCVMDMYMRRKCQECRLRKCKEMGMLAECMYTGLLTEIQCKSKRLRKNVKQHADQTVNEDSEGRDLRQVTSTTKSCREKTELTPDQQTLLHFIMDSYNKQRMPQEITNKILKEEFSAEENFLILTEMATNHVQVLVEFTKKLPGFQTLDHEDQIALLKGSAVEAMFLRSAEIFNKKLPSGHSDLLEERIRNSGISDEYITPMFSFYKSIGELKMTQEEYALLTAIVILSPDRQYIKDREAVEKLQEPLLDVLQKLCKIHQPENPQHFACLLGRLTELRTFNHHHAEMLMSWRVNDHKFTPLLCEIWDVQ
Summary of the method: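 GeneBLAzer FXR-UAS-bla HEK 293T, CDCA-stimulated (50 uM final). Compound treatment 16 h, 37 °C. Detection: beta-lactamase cleavage of B/G FRET substrate, fluorescence.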

[14] = qHTS assay for small molecule activators of the heat shock response signaling pathway (AID 743210; active = well fitted activation curve with a large enough effect in the signal ratio in the repeat runs, with a control signal flat, not every such curve was filed as active; inconclusive = weak or mixed curves; the % refers to the signal ratio); conditions: HeLa HSE-bla reporter, beta-lactamase ratio, 5 h; activation: at 62.6 µM (top of the series)
Summary of the method: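 HeLa HSE-bla cells, overnight plating; cpd in DMSO 5 h, 37 C; LiveBLAzer B/G FRET substrate 2.5 h RT; fluorescence intensity read.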

[15] = qHTS assay to identify small molecule agonists of the farnesoid-X-receptor (FXR) signaling pathway - cell viability counter screen (AID 743218); conditions: FXR-bla HEK293T viability, CellTiter-Glo luminescence, 16 h; viability change, negative = cytotoxic: at 62.6 µM (top of the series) unless noted; also: nearly all actives have a fitted effect of over 45% in size
Summary of the method: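 Parallel cytotoxicity test: compound-treated (16 h, 37 C) HEK 293T FXR-bla reporter cells were lysed with CellTiter-Glo and luminescence recorded.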

[16] = target: Bile acid receptor (Homo sapiens) (UniProt Q96RI1); assay: qHTS assay to identify small molecule agonists of the farnesoid-X-receptor (FXR) signaling pathway (AID 743220; active = well fitted activation curve with a large enough effect in the signal ratio in the repeat runs, not every such curve was filed as active; inconclusive = weak or mixed curves, or effect the other way; the % refers to the signal ratio); conditions: HEK293T FXR-UAS-bla, beta-lactamase FRET ratio, 16 h; activation: at 62.6 µM (top of the series) unless noted
Summary of the method: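 Beta-lactamase reporter under UAS control in GeneBLAzer FXR HEK 293T cells (5000/well) measured with LiveBLAzer FRET substrate after 2 h at room temperature. Compound exposure lasted 16 h at 37C.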

[17] = qHTS assay for small molecule activators of the heat shock response signaling pathway - cell viability counter screen (AID 743209); conditions: HSE-bla HeLa viability, CellTiter-Glo luminescence, 5 h; activity change, negative = cytotoxicity: at 62.6 µM (top of the series); also: nearly all actives have a fitted effect of over 50% in size
Summary of the method: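 Readout: CellTiter-Glo luminescence, 30 min at room temperature. System: HSE-bla HeLa cells, 1500/well, plated overnight. Treatment: compounds in DMSO, 5 h at 37 C.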

[18] = target: Vitamin D3 receptor (Homo sapiens) (UniProt P11473); assay: qHTS assay to identify small molecule agonists of the vitamin D receptor (VDR) signaling pathway (AID 743222; calls by dose curve); conditions: HEK293T VDR-UAS-bla, beta-lactamase FRET ratio, 16 h; activation: at 63.5 µM (top of the series) unless noted
Summary of the method: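 In VDR-bla cells, compound-induced beta-lactamase expression is quantified by FRET substrate fluorescence. Treatment lasts 16 h at 37C; substrate develops 2 h at room temperature.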

[19] = activation: at 73.3 µM (top of the series) unless noted
Potency is read from the fitted curve at half-maximal effect; tags tell the direction and shape of the fitted curve or compound fluorescence and quenching.

COc1cccc([C@H](O)C2CCN(CCc3ccc(F)cc3)CC2)c1OC
inconclusive: Potency [1] 43.3 µM [falling, partial curve] | Potency [2] 49 µM [rising, partial curve, poor fit] | Potency [4, 19] 27.3 µM [falling, partial curve] | Potency [5] 0.217 µM [cytotoxic, full curve, poor fit] | Potency [8] 0.977 µM [cytotoxic, full curve, poor fit] | activity change, negative = inhibition [9] 18.5%
inactive: Potency [3] | Potency [6] | Potency [7]

CC(C)=CCCC(C)CCO (stereo not drawn)
inconclusive: activation [4, 19] -1.48% [at 94.8 µM] | Potency [10] 2.27 µM [falling, full curve, poor fit]
inactive: Potency [1] | activation ([4]; at 73.3 µM (top of the series)) 3.94%

CN1C[C@H]2c3ccccc3Oc3ccc(Cl)cc3[C@@H]2C1
inconclusive: Potency [1] 33.5 µM [falling, single point] | Potency [11] 11.9 µM [cytotoxic, partial curve, poor fit] | Potency [4, 19] 33.5 µM [rising, partial curve, poor fit] | Potency [6] 26.6 µM [cytotoxic]
inactive: Potency [12] | Potency [13]

COc1ccc2cc3[n+](cc2c1OC)CCc1cc2c(cc1-3)OCO2
active: Potency [4, 19] 2.45 µM and 5.96 µM
inconclusive: Potency [1] 19.5 µM [falling, partial curve] | ratio activity, negative = inhibition ([3]; at 62.6 µM (top of the series)) 2.31% | ratio activity, negative = inhibition ([3]; at 81.1 µM (top of the series)) 1.67% | Potency [6] 3.92 µM [cytotoxic, full curve] | Potency [7] 23.7 µM [rising, partial curve, poor fit] | Potency [8] 0.392 µM [cytotoxic, full curve, poor fit] | Potency [15] 26.6 µM [cytotoxic, partial curve, poor fit] | activation [16] 8.31% [at 81.1 µM] | Potency [10] 11 µM [falling, full curve]
inactive: Potency [14]

C=CCOC(=O)/C=C\C(=O)OCC=C
active: Potency [4, 19] 27.8 µM
inactive: Potency [1] | Potency [15]
inconclusive: Potency [3] 7.9 µM [inhibitor, full curve] | Potency [17] 62.8 µM [cytotoxic, single point] | Potency [14] 49.9 µM

CCCC(=O)OC[C@@H](OC(=O)CCC)[C@@H](OC(=O)CCC)[C@H](Cn1c2nc(=O)[nH]c(=O)c-2nc2cc(C)c(C)cc21)OC(=O)CCC
inconclusive: Potency [1] 3.35 µM [rising, full curve] | Potency [3] 26.6 µM [fluorescent] | Potency [4, 19] 26.6 µM [falling, partial curve] | Potency [14] 21.1 µM | Potency [7] 29.8 µM [rising, partial curve] | Potency [8] 9.44 µM [cytotoxic, single point] | Potency [12] 26.6 µM [rising, partial curve] | Potency [13] 29.8 µM [partial curve] | Potency [16] 23.7 µM [rising, partial curve, poor fit] | Potency [18] 23.7 µM [rising, partial curve] | Potency [9] 19 µM [fluorescent, partial curve]

Nc1nnc(-c2ccc([N+](=O)[O-])o2)o1
inconclusive: Potency [11] 0.195 µM [cytotoxic, full curve] | Potency [4, 19] 61.1 µM [falling, partial curve] | Potency [15] 0.195 µM [rising, partial curve, poor fit]
active: Potency [1] 54.5 µM

C[C@]12C=CC(=O)C=C1CC[C@H]1[C@@H]3C[C@@H](O)[C@](O)(C(=O)CO)[C@@]3(C)C[C@H](O)[C@@]12F
inconclusive: Potency [1] 2.17 µM [rising, partial curve] | Potency [14] 6.68 µM [rising, partial curve, poor fit] | activity change, negative = inhibition [9] 1.7%
inactive: Potency [3] | Potency [6]

C#CC(O)C(CC)CCCC (stereo not drawn)
inactive: Potency [1] | Potency [3] | Potency [8]

Cc1cccc(C)c1NC(=O)CN1CCN(CCCC(c2ccc(F)cc2)c2ccc(F)cc2)CC1
inconclusive: Potency [3] 29.8 µM [inhibitor, single point] | Potency [4, 19] 33.5 µM [falling, single point] | Potency [5] 29.8 µM [cytotoxic] | Potency [17] 37.6 µM [cytotoxic, single point] | Potency [14] 33.5 µM [single point] | Potency [7] 9.44 µM [rising, partial curve, poor fit] | ratio activity, negative = inhibition [12] -46.5% | Potency [13] 29.8 µM | Potency [18] 13.3 µM [rising, partial curve, poor fit] | Potency [9] 26.8 µM [single point]
active: Potency [1] 11.4 µM | Potency [11] 26.6 µM | Potency [8] 21.1 µM | Potency [15] 26.6 µM | Potency [10] 29.8 µM

NNc1ccc(C(=O)O)cc1
inactive: Potency [1] | Potency [3] | Potency [4, 19]
inconclusive: activation [7] 4.8% [at 81.1 µM]
